# Where a chain is given by its changes, count along the chain named. This is one part of the list.
# B1: AGUCGUU (DNA:RNA)
# RNA: GGGAGACCGGAAUUCAGAUUGUCCAGUCGUUUUAAAUCCCGUCGUAGCCACCA
# DNA 1: CAATCTGAATTCCGGTCTCCC
# DNA 2: TGGTGGCTACGACGGGATT
# B2: AACUAGG (DNA:RNA)
# RNA: B1 RNA with G26A, U27C, C28U, G29A, U30G, U31G
# DNA 1: CAATCTGAATTCCGGTCTCCC
# DNA 2: TGGTGGCTACGACGGGATT
# B3: CAUGUCC (DNA:RNA)
# RNA: B1 RNA with A25C, G26A, C28G, G29U, U30C, U31C
# DNA 1: CAATCTGAATTCCGGTCTCCC
# DNA 2: TGGTGGCTACGACGGGATT
# B4: CGAGAGC (DNA:RNA)
# RNA: B1 RNA with A25C, U27A, C28G, G29A, U30G, U31C
# DNA 1: CAATCTGAATTCCGGTCTCCC
# DNA 2: TGGTGGCTACGACGGGATT
# B5: GGCCACA (DNA:RNA)
# RNA: B1 RNA with A25G, U27C, G29A, U30C, U31A
# DNA 1: CAATCTGAATTCCGGTCTCCC
# DNA 2: TGGTGGCTACGACGGGATT
# B6: CCCCGGC (DNA:RNA)
# RNA: B1 RNA with A25C, G26C, U27C, U30G, U31C
# DNA 1: CAATCTGAATTCCGGTCTCCC
# DNA 2: TGGTGGCTACGACGGGATT
# B7: ACCGGAU (DNA:RNA)
# RNA: B1 RNA with G26C, U27C, C28G, U30A
# DNA 1: CAATCTGAATTCCGGTCTCCC
# DNA 2: TGGTGGCTACGACGGGATT
# B8: UUGUCAU (DNA:RNA)
# RNA: B1 RNA with A25U, G26U, U27G, C28U, G29C, U30A
# DNA 1: CAATCTGAATTCCGGTCTCCC
# DNA 2: TGGTGGCTACGACGGGATT
# B9: AACAUCA (DNA:RNA)
# RNA: B1 RNA with G26A, U27C, C28A, G29U, U30C, U31A
# DNA 1: CAATCTGAATTCCGGTCTCCC
# DNA 2: TGGTGGCTACGACGGGATT
# B10: GUUAAUC (DNA:RNA)
# RNA: B1 RNA with A25G, G26U, C28A, G29A, U31C
# DNA 1: CAATCTGAATTCCGGTCTCCC
# DNA 2: TGGTGGCTACGACGGGATT
# B11: GUGCGUG (DNA:RNA)
# RNA: B1 RNA with A25G, G26U, U27G, U31G
# DNA 1: CAATCTGAATTCCGGTCTCCC
# DNA 2: TGGTGGCTACGACGGGATT
# B12: GUGAUGU (DNA:RNA)
# RNA: B1 RNA with A25G, G26U, U27G, C28A, G29U, U30G
# DNA 1: CAATCTGAATTCCGGTCTCCC
# DNA 2: TGGTGGCTACGACGGGATT
# B13: UAUUGCG (DNA:RNA)
# RNA: B1 RNA with A25U, G26A, C28U, U30C, U31G
# DNA 1: CAATCTGAATTCCGGTCTCCC
# DNA 2: TGGTGGCTACGACGGGATT
# B14: UUCAGGG (DNA:RNA)
# RNA: B1 RNA with A25U, G26U, U27C, C28A, U30G, U31G
# DNA 1: CAATCTGAATTCCGGTCTCCC
# DNA 2: TGGTGGCTACGACGGGATT
# B15: CAAUUAA (DNA:RNA)
# RNA: GGGAGACCGGAAUUCAGAUUGUCCCAAUUAAUUAAAUCCCGUCGUAGCCACCA
# DNA 1: CAATCTGAATTCCGGTCTCCC
# DNA 2: TGGTGGCTACGACGGGATT
# B16: CCCGUAU (DNA:RNA)
# RNA: B15 RNA with A26C, A27C, U28G, A31U
# DNA 1: CAATCTGAATTCCGGTCTCCC
# DNA 2: TGGTGGCTACGACGGGATT
# B17: CAACCUA (DNA:RNA)
# RNA: B15 RNA with U28C, U29C, A30U
# DNA 1: CAATCTGAATTCCGGTCTCCC
# DNA 2: TGGTGGCTACGACGGGATT
# B18: UGUCGGU (DNA:RNA)
# RNA: B1 RNA with A25U, U30G
# DNA 1: CAATCTGAATTCCGGTCTCCC
# DNA 2: TGGTGGCTACGACGGGATT
# B19: ACUGACA (DNA:RNA)
# RNA: B1 RNA with G26C, C28G, G29A, U30C, U31A
# DNA 1: CAATCTGAATTCCGGTCTCCC
# DNA 2: TGGTGGCTACGACGGGATT
# B20: GUUAUCG (DNA:RNA)
# RNA: B1 RNA with A25G, G26U, C28A, G29U, U30C, U31G
# DNA 1: CAATCTGAATTCCGGTCTCCC
# DNA 2: TGGTGGCTACGACGGGATT
# B21: GAACUCG (DNA:RNA)
# RNA: B15 RNA with C25G, U28C, A30C, A31G
# DNA 1: CAATCTGAATTCCGGTCTCCC
# DNA 2: TGGTGGCTACGACGGGATT
# B22: CCCGUGA (DNA:RNA)
# RNA: B15 RNA with A26C, A27C, U28G, A30G
# DNA 1: CAATCTGAATTCCGGTCTCCC
# DNA 2: TGGTGGCTACGACGGGATT
# B23: GAUGUGA (DNA:RNA)
# RNA: B15 RNA with C25G, A27U, U28G, A30G
# DNA 1: CAATCTGAATTCCGGTCTCCC
# DNA 2: TGGTGGCTACGACGGGATT
# B24: CCAGUAA (DNA:RNA)
# RNA: B15 RNA with A26C, U28G
# DNA 1: CAATCTGAATTCCGGTCTCCC
# DNA 2: TGGTGGCTACGACGGGATT
# B25: CUUUCGA (DNA:RNA)
# RNA: B15 RNA with A26U, A27U, U29C, A30G
# DNA 1: CAATCTGAATTCCGGTCTCCC
# DNA 2: TGGTGGCTACGACGGGATT
# B26: AGCUCCA (DNA:RNA)
# RNA: B1 RNA with U27C, C28U, G29C, U30C, U31A
# DNA 1: CAATCTGAATTCCGGTCTCCC
# DNA 2: TGGTGGCTACGACGGGATT
# B27: GUUUCCC (DNA:RNA)
# RNA: B1 RNA with A25G, G26U, C28U, G29C, U30C, U31C
# DNA 1: CAATCTGAATTCCGGTCTCCC
# DNA 2: TGGTGGCTACGACGGGATT
# B28: UCAUCUC (DNA:RNA)
# RNA: B15 RNA with C25U, A26C, U29C, A30U, A31C
# DNA 1: CAATCTGAATTCCGGTCTCCC
# DNA 2: TGGTGGCTACGACGGGATT
# B29: GCCGGUU (DNA:RNA)
# RNA: B1 RNA with A25G, G26C, U27C, C28G
# DNA 1: CAATCTGAATTCCGGTCTCCC
# DNA 2: TGGTGGCTACGACGGGATT
# B30: CGAGUCC (DNA:RNA)
# RNA: B15 RNA with A26G, U28G, A30C, A31C
# DNA 1: CAATCTGAATTCCGGTCTCCC
# DNA 2: TGGTGGCTACGACGGGATT
# B31: AGCCCCG (DNA:RNA)
# RNA: B1 RNA with U27C, G29C, U30C, U31G
# DNA 1: CAATCTGAATTCCGGTCTCCC
# DNA 2: TGGTGGCTACGACGGGATT
# Target: T1, RBFOX1 RRM (Homo sapiens, UniProt Q9NWB1 109-208)
# T1 sequence: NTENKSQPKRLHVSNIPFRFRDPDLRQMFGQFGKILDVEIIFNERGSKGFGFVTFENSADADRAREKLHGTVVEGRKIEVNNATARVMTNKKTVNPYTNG
# Experiment: EMSA; HiTS-Eq, 1 nM pool, 10 min; buffer printed only for the single-RNA assays: 10 mM Tris pH 7.5, 150 mM NaCl, 3.4 mM EDTA, 0.001% NP-40, 30 C
# Conditions: tags: His6 N-terminal (pET28a); label: 5' 32P
# Outline: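 Purified RbFox RRM (wild type or mutant) was equilibrated for 10 min in 50 µL with 1 nM of a 5′-radiolabelled pool of RNA with 7 randomized nucleotides, its flanks annealed to DNA oligonucleotides, across increasing protein concentrations. Free RNA was separated by 8% native PAGE, excised, reverse-transcribed, PCR-barcoded and sequenced on an Illumina HiSeq 2500. Relative association constants came from read-count changes of each variant against the control reaction, normalised to the cognate motif.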
row,Binder,binding signal
1,B1,0.00948 KA relative to UGCAUGU
2,B2,0.00678 KA relative to UGCAUGU
3,B3,0.00562 KA relative to UGCAUGU
4,B4,0.0117 KA relative to UGCAUGU
5,B5,0.00555 KA relative to UGCAUGU
6,B6,0.00228 KA relative to UGCAUGU
7,B7,0.00466 KA relative to UGCAUGU
8,B8,0.00962 KA relative to UGCAUGU
9,B9,0.000329 KA relative to UGCAUGU
10,B10,0.00989 KA relative to UGCAUGU
11,B11,0.0481 KA relative to UGCAUGU
12,B12,0.0144 KA relative to UGCAUGU
13,B13,0.0247 KA relative to UGCAUGU
14,B14,0.00728 KA relative to UGCAUGU
15,B15,0.0015 KA relative to UGCAUGU
16,B16,0.009 KA relative to UGCAUGU

row,Binder,binding signal
1,B17,0.000318 KA relative to UGCAUGU
2,B18,0.0189 KA relative to UGCAUGU
3,B19,0.00469 KA relative to UGCAUGU
4,B20,0.0107 KA relative to UGCAUGU
5,B21,0.0111 KA relative to UGCAUGU
6,B22,0.00709 KA relative to UGCAUGU
7,B23,0.0165 KA relative to UGCAUGU
8,B24,0.00321 KA relative to UGCAUGU
9,B25,0.0138 KA relative to UGCAUGU
10,B26,0.00217 KA relative to UGCAUGU
11,B27,0.0233 KA relative to UGCAUGU
12,B28,0.00423 KA relative to UGCAUGU
13,B29,0.0184 KA relative to UGCAUGU
14,B30,0.0069 KA relative to UGCAUGU
15,B31,0.00377 KA relative to UGCAUGU

# Reference: article PMC9911399, “Two distinct binding modes provide the RNA-binding protein RbFox with extraordinary sequence specificity”
